Data: publication PMC3709100
No constants are given. Whether binding was seen depends on the method and setting. Binding seen in cells or lysates may run through a third protein. Some results given as binding are weak or reduced against the parent protein; the word gives no strength. For part of these data: Tags and fused reporters may be left off the sequences shown.

By UniProt entry, the sequences of proteins in these tests, tags left out.
UniProt P06700: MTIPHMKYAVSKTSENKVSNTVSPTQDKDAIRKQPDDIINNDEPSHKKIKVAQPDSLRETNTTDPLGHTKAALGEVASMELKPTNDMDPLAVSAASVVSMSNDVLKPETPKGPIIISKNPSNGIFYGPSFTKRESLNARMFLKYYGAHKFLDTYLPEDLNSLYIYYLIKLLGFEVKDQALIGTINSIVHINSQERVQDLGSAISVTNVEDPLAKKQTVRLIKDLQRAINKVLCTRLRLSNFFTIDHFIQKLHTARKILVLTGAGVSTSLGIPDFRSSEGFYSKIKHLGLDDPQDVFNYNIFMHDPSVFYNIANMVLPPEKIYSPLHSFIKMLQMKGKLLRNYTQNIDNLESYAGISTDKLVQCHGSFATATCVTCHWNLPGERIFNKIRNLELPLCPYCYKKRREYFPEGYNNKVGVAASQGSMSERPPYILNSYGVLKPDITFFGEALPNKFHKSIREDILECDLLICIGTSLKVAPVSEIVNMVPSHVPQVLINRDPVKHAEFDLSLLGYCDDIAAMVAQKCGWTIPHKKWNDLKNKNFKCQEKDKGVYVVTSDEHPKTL

T1: Ndd1-VC (S. cerevisiae) (UniProt Q08887)
T1 sequence: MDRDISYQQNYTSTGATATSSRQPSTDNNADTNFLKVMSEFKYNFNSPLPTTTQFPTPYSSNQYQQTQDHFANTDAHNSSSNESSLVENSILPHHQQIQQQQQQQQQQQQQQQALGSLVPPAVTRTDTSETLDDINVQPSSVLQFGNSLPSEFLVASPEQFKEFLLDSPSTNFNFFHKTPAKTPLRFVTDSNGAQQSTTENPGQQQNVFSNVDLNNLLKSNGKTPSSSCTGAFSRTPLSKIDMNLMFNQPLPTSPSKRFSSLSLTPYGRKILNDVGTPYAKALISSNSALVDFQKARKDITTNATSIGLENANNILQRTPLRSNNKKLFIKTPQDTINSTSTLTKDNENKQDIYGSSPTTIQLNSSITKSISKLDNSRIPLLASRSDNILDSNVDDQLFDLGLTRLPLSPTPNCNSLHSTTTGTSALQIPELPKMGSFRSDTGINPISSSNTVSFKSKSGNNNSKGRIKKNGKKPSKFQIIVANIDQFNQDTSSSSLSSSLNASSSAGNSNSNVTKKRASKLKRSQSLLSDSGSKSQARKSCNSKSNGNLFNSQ


Columns and labels:
GST-Sir2 (S. cerevisiae) = GST-Sir2 (S. cerevisiae) (UniProt P06700); assay: pull-down; GST or GST-Sir2 from E. coli immobilised on glutathione sepharose beads, incubated overnight at 4°C with 1 ml yeast lysate (5 μg/μl total protein) of cells expressing Myc-tagged Fkh1, Fkh2 or Hcm1; GST-binding buffer (20 mM TrisHCl pH 7.9, 125 mM NaCl, 5 mM MgCl2, 0.5 mM DTT); α-Myc blot; only the target purified
Sir2-VC (S. cerevisiae) [1] = biological target: Sir2-VC (S. cerevisiae) (UniProt P06700); assay: split reporter; Venus BiFC in haploid yeast cells: chromosomal VC fusion and VN fusion from a p426GPD plasmid; fluorescence microscopy; cells in mid-logarithmic/exponential phase, also G1 after α-factor arrest, stationary phase (OD600 ~1.6), 2 mM H2O2 or 40 μM MD
Ndd1-VC (S. cerevisiae) [2] = biological target: T1, Ndd1-VC (S. cerevisiae); assay: condition: only cells in stationary phase (OD600 ~1.6); split reporter; Venus BiFC in haploid yeast cells grown to stationary phase (OD600 ~1.6)
Ndd1-VC (S. cerevisiae) [3] = biological target: T1, Ndd1-VC (S. cerevisiae); assay: split reporter; Venus BiFC in haploid yeast cells: chromosomal VC fusion and VN fusion from a p426GPD plasmid; fluorescence microscopy; cells in mid-logarithmic/exponential phase, also G1 after α-factor arrest, stationary phase (OD600 ~1.6), 2 mM H2O2 or 40 μM MD
Sir2-VC (S. cerevisiae) [4] = biological target: Sir2-VC (S. cerevisiae) (UniProt P06700); assay: condition: only from after 20 min until 70 min after release from α-factor arrest (late S to late M phase); split reporter; Venus BiFC time course after release from α-factor arrest, samples every 10 min; the time points after 20 min until late M phase (70 min)

Binder | binding (GST-Sir2 (S. cerevisiae)) | binding (Sir2-VC (S. cerevisiae) [1]) | also measured
Hcm1-Myc (protein, UniProt P25364 1-564) MMNEDISIIDGHNSFLTEKSTVLLTQAKRTLEDEKEMITPPSSTVRKTMKEVNKRPSHPLSPDHSSPIAPSKAKRQRSDTCARSNGNLTLEEILQSLERRRINGELAKKPPYSYATLICLAILQSQEGKLTLSQIYHWIHVHFPYYKQKDASWQNSIRHNLSLNDAFIKTEKSCDGKGHFWEVRPGAETKFFKGENRGYEFVKDSLQDIGKYFEIDSTLDELEQVESGEGNDDLPDEEEREEAGKFPSIEIQLNSSPILRVSQLHHIPQLKTDNSVLNPHENLESMRNMIENDVNNIDSLEPPYVMKKYHTSLGLPSLVNAKDHFQAGVKNNNITQANRFNTLPITSAKSPQNFRKYFTSFNSNFEDLSPLRSNVGAGSLLDPLPYSPLKLYDQKNLALMSKPQSQQSYSNSQLPPPPSSHGSDLLKTPKMRHSDGLEKTPSRLISTPKDGNSILRKWQTPSHLFEDLYCSPLFRAIETPIRYITTPGGTLETQISPRKSSAPDVLTSATNSKFASSGLFGVDVYSVWKRATEKISDGNNTTDSNQKHHPYHNHPSNDSGNEKN | binds |  | 
Fkh2-Myc (protein, UniProt P41813 1-862) MSSSNFNEMNELNMTQTNYGSTKYTAQHHQGVINAIISSLTAPDQPTTVSLQYSNDKNMATEIQAYAKLSGPNWTYYVKDLEVSIGRNTDPLNSALQENSDGVKNSYRVNIDLGPAKVVSRKHAIIKYNMNIGGWELHILGRNGAKVNFQRTHNGPNNPPIRLSSGTLLDIGGTQMMFILPDSDPVVAPICIEHLMPNLINMFGLEGNNNPLLRDIIKQSNYAKQRQLTSNQQIKGFKLYGSGGNAPFGSGANLGPSEQGIFNNNNNSKNKNGYFTSINPNYTASTTTSNTINPQAASPQGPPNTIIAANFVDSYKSSNAYPQALDFTSDLSHDENRNVKPPHSYATMITQAILSSPEGVISLADIYKYISSNYAYYRFAKSGWQNSIRHNLSLNKAFEKVPRRPNEPGKGMKWRISESYQQEFLNKWNTGKVGKIRRGSSVARQLQLHMAKFNSLPMEMDYRLSLNMAQPPKRQLQSHNVLEPSNNNIIEGFVQHVPSKGNLPASQQSQPPVSHQNQSQQPPPQEQRQEIQFTFADTQNRNIALARPIKTPQLQAPNSNANLNQNNMKEYKESLHPPAISISQMNRQSPNNALVSFTNACANSKIINNISDSADKSTNNNGGTKMNLPAISTSSLDENGNLEPTTTTSSGNSNSVPQTGTTTSSLAANSLRLSQPYDTLLRSPTKAFHITAMEAYTPERGSANRARSPLHSNSNNTNNNGANNSNLQTSGMENKQTGLVLDSNVLKSMESNNDNRRLTPSTSKSQNVKSSPGVWNLLQFSSTNNTPAADSGGNKRGFSINPDIKAKENENATSEKDSDSNSNDLETKDINSSPLKNQGGSTANAKELILDTDGAKISIINN | binds |  | 
Fkh1-Myc (protein, UniProt P40466 1-484) MSVTSREQKFSGKYSSYTAQDRQGLVNAVTCVLSSSSDPVAVSSDYSNSLSIAREVNAYAKIAGCDWTYYVQKLEVTIGRNTDSLNLNAVPGTVVKKNIDIDLGPAKIVSRKHAAIRFNLESGSWELQIFGRNGAKVNFRRIPTGPDSPPTVLQSGCIIDIGGVQMIFILPEQETIISDYCLNHLMPKLLSTYGTNGNNNPLLRNIIEGSTYLREQRLQEEARLQQLDHLHTPLSSSSDVNPIGDPHGDTIMMEEDEEDENYTRGGIRPNTYTSSSNNAVTNGNVPHIENPSDLSLDENRYIKPPQSYASMITQAILSTPEGSISLADIYKFISDNYAFYRFSQMAWQNSVRHNLSLNKAFEKVPKRAGQQGKGMNWKISDEVRRDFLNKWNAGKLSKIRRGASVTRQLQLHMSKFGEIPAPESSSIDPRGIKAQKVKKSLQATSSILGESAPQLQRTQLTGQISTTTSMDVTTNANVNNSSLS | binds |  | 
VN-Fkh1 (protein, UniProt P40466 1-484) MSVTSREQKFSGKYSSYTAQDRQGLVNAVTCVLSSSSDPVAVSSDYSNSLSIAREVNAYAKIAGCDWTYYVQKLEVTIGRNTDSLNLNAVPGTVVKKNIDIDLGPAKIVSRKHAAIRFNLESGSWELQIFGRNGAKVNFRRIPTGPDSPPTVLQSGCIIDIGGVQMIFILPEQETIISDYCLNHLMPKLLSTYGTNGNNNPLLRNIIEGSTYLREQRLQEEARLQQLDHLHTPLSSSSDVNPIGDPHGDTIMMEEDEEDENYTRGGIRPNTYTSSSNNAVTNGNVPHIENPSDLSLDENRYIKPPQSYASMITQAILSTPEGSISLADIYKFISDNYAFYRFSQMAWQNSVRHNLSLNKAFEKVPKRAGQQGKGMNWKISDEVRRDFLNKWNAGKLSKIRRGASVTRQLQLHMSKFGEIPAPESSSIDPRGIKAQKVKKSLQATSSILGESAPQLQRTQLTGQISTTTSMDVTTNANVNNSSLS |  | binds | binding (Sir2-VC (S. cerevisiae) [4]): no binding

The next lines start with results.

binding (GST-Sir2 (S. cerevisiae)) | binding (Sir2-VC (S. cerevisiae) [1]) | Binder | also measured
 | binds | VN-Hcm1 (protein, UniProt P25364 1-564) MMNEDISIIDGHNSFLTEKSTVLLTQAKRTLEDEKEMITPPSSTVRKTMKEVNKRPSHPLSPDHSSPIAPSKAKRQRSDTCARSNGNLTLEEILQSLERRRINGELAKKPPYSYATLICLAILQSQEGKLTLSQIYHWIHVHFPYYKQKDASWQNSIRHNLSLNDAFIKTEKSCDGKGHFWEVRPGAETKFFKGENRGYEFVKDSLQDIGKYFEIDSTLDELEQVESGEGNDDLPDEEEREEAGKFPSIEIQLNSSPILRVSQLHHIPQLKTDNSVLNPHENLESMRNMIENDVNNIDSLEPPYVMKKYHTSLGLPSLVNAKDHFQAGVKNNNITQANRFNTLPITSAKSPQNFRKYFTSFNSNFEDLSPLRSNVGAGSLLDPLPYSPLKLYDQKNLALMSKPQSQQSYSNSQLPPPPSSHGSDLLKTPKMRHSDGLEKTPSRLISTPKDGNSILRKWQTPSHLFEDLYCSPLFRAIETPIRYITTPGGTLETQISPRKSSAPDVLTSATNSKFASSGLFGVDVYSVWKRATEKISDGNNTTDSNQKHHPYHNHPSNDSGNEKN | 
 | binds | VN-Fkh2 (protein, UniProt P41813 1-862) MSSSNFNEMNELNMTQTNYGSTKYTAQHHQGVINAIISSLTAPDQPTTVSLQYSNDKNMATEIQAYAKLSGPNWTYYVKDLEVSIGRNTDPLNSALQENSDGVKNSYRVNIDLGPAKVVSRKHAIIKYNMNIGGWELHILGRNGAKVNFQRTHNGPNNPPIRLSSGTLLDIGGTQMMFILPDSDPVVAPICIEHLMPNLINMFGLEGNNNPLLRDIIKQSNYAKQRQLTSNQQIKGFKLYGSGGNAPFGSGANLGPSEQGIFNNNNNSKNKNGYFTSINPNYTASTTTSNTINPQAASPQGPPNTIIAANFVDSYKSSNAYPQALDFTSDLSHDENRNVKPPHSYATMITQAILSSPEGVISLADIYKYISSNYAYYRFAKSGWQNSIRHNLSLNKAFEKVPRRPNEPGKGMKWRISESYQQEFLNKWNTGKVGKIRRGSSVARQLQLHMAKFNSLPMEMDYRLSLNMAQPPKRQLQSHNVLEPSNNNIIEGFVQHVPSKGNLPASQQSQPPVSHQNQSQQPPPQEQRQEIQFTFADTQNRNIALARPIKTPQLQAPNSNANLNQNNMKEYKESLHPPAISISQMNRQSPNNALVSFTNACANSKIINNISDSADKSTNNNGGTKMNLPAISTSSLDENGNLEPTTTTSSGNSNSVPQTGTTTSSLAANSLRLSQPYDTLLRSPTKAFHITAMEAYTPERGSANRARSPLHSNSNNTNNNGANNSNLQTSGMENKQTGLVLDSNVLKSMESNNDNRRLTPSTSKSQNVKSSPGVWNLLQFSSTNNTPAADSGGNKRGFSINPDIKAKENENATSEKDSDSNSNDLETKDINSSPLKNQGGSTANAKELILDTDGAKISIINN | binding (Ndd1-VC (S. cerevisiae) [2]): no binding; binding (Ndd1-VC (S. cerevisiae) [3]): binds
